Sequences with one replicate were seen in a single cluster, so their values are uncertain.
test system: ATP; assay: switch fluorescence ratio, 500 uM ATP over buffer (Cy3 cluster intensity, sum of 5 cycles each) (fold (ratio)); higher = stronger signal-on switching upon ATP binding; sequences stand for … in TCGTCGGCAGCGTCAGATGTGTATAAGAGACAGTTTTTTTTTTTTTTTTTTTTTTTTT…TC; conditions: aptamer strand: ATP DNA aptamer (quencher-CACCTGGGGGAGTATTGCGGAGGAAGG + anchor), 100 nM annealed; ATP concentration: 500 uM; one replicate
In short: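 Cy3-labelled switching-strand clusters on a modified Illumina MiSeq flow-cell were annealed to 100 nM quencher-labelled ATP aptamer and imaged first in selection buffer, then after 15 min with 500 uM ATP at 22 °C. NaOH stripping and re-annealing separated each of five buffer/ATP cycles, and clusters outside 100-1000 RFU were excluded. The fluorescence ratio sums target-cycle Cy3 intensity over buffer-cycle Cy3 intensity per cluster and averages it per switch-domain sequence.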
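Further: ATP exposure 15 min at 22 °C before imaging.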

Sequence | switch fluorescence ratio
TTGCTACTA | 1.06
TTGCTATTGG | 0.997
TTGCTGCGAC | 1.04
TTGCTGGCAA | 1.39
TTGCTGGGTT | 0.938
TTGCTGTAGA | 1.02
TTGCTTGCCG | 1.01
TTGCTTGGA | 1.01
TTGCTTTTA | 1.01
TTGCTTTTCT | 1
TTGGAACATT | 0.984
TTGGACGCGA | 1.27
TTGGACTT | 1.01
TTGGAGACT | 0.99
TTGGAGCTAA | 1.33
TTGGAGGAAG | 0.984
TTGGATATCC | 0.952
TTGGATTATT | 0.923
TTGGCCTGTG | 1.09
TTGGCGGGA | 1.07
TTGGCGGTTG | 0.973
TTGGCGTTTA | 1.01
TTGGCTAACC | 1.02
TTGGCTGGCC | 0.993
TTGGCTTCCG | 1.08
TTGGGCCAGC | 0.955

Sequence | switch fluorescence ratio
TTGGGGGA | 1.03
TTGGGTCACT | 1.02
TTGGGTCGAG | 0.967
TTGGGTGGA | 0.974
TTGGGTTGAC | 1
TTGGTAACCA | 1.03
TTGGTAGAAC | 1
TTGGTAGAGA | 1
TTGGTATACC | 0.959
TTGGTATTCC | 1.1
TTGGTCAAT | 0.998
TTGGTCAGAT | 0.991
TTGGTCCAGG | 1.11
TTGGTCTGTG | 0.986
TTGGTGAAGC | 1.04
TTGGTGACAG | 0.956
TTGGTGAGAC | 1.09
TTGTAAA | 1.01
TTGTAAATGG | 0.975
TTGTAACAGC | 1.07
TTGTAACCTT | 1.42
TTGTAACTAC | 2.45
TTGTACA | 1.02
TTGTACTGGC | 1.12
TTGTAGTGCG | 0.994
TTGTATATCT | 1.05

Sequence | switch fluorescence ratio
TTGTATTATC | 1.02
TTGTCACGTC | 0.981
TTGTCAGCAT | 1.67
TTGTCGATCA | 1.04
TTGTCTCTGG | 0.973
TTGTCTTAAT | 0.979
TTGTCTTCCG | 1.09
TTGTCTTGAG | 0.962
TTGTGAAAAT | 0.948
TTGTGAACAA | 0.989
TTGTGAAGTC | 0.978
TTGTGAATCC | 0.999
TTGTGAGAA | 1.02
TTGTGATCAT | 0.975
TTGTGCAGGT | 1.03
TTGTGCCCAA | 1.04
TTGTGCTATC | 1.11
TTGTGGACAG | 0.988
TTGTGGGCGT | 0.998
TTGTGGTGAT | 1.02
TTGTGTAT | 1.02
TTGTGTGAAG | 0.98
TTGTGTGTG | 0.995
TTGTGTTAAT | 0.978
TTGTTATAAA | 0.994
TTGTTATATC | 1.06

Sequence | switch fluorescence ratio
TTGTTATG | 0.988
TTGTTCCCT | 1.03
TTGTTCGAG | 0.969
TTGTTCGGTG | 0.985
TTGTTCTTGC | 0.975
TTGTTGAACT | 1.01
TTGTTGTACA | 0.989
TTGTTGTCCA | 0.991
TTGTTTAAT | 0.962
TTGTTTAGAC | 1.02
TTGTTTGAGT | 1.03
TTTAAAAAGA | 1.02
TTTAAACATG | 1.06
TTTAAAGAT | 0.969
TTTAAAGCG | 1.02
TTTAACGTTA | 1.03
TTTAAGAACG | 1
TTTAAGATCG | 1.03
TTTAAGATGT | 1
TTTAAGCGAC | 1.85
TTTAATGCTC | 1.04
TTTAATGGG | 0.977
TTTAATGGT | 1.01
TTTAATTAGA | 0.991
TTTACAAAGC | 1.16
TTTACATGGG | 0.972

Sequence | switch fluorescence ratio
TTTACCCGAC | 1.22
TTTACCCGTT | 1
TTTACCGAGC | 1.06
TTTACCTCAC | 1.5
TTTACGACTC | 1.2
TTTACGCGTG | 0.993
TTTACGTCTG | 0.983
TTTACTTGAA | 0.966
TTTAGAACAT | 0.989
TTTAGAACTA | 0.953
TTTAGACCGT | 0.962
TTTAGAGAA | 0.94
TTTAGCAAGA | 1.43
TTTAGCAGTA | 1.3
TTTAGCAGTC | 1.02
TTTAGCCACG | 0.968
TTTAGCCGC | 1.03
TTTAGCGCCC | 0.955
TTTAGCTCGT | 0.978
TTTAGCTTGC | 0.99
TTTAGGACG | 0.925
TTTAGGAGTG | 1.01
TTTAGGATAG | 0.989
TTTAGGCGGA | 1.04
TTTAGTAGT | 0.996
TTTAGTAGTG | 0.982

Sequence | switch fluorescence ratio
TTTAGTATAG | 0.995
TTTAGTGGAC | 0.999
TTTAGTTGCG | 0.973
TTTATACAAT | 0.963
TTTATAGCTT | 1.01
TTTATCCAGT | 0.963
TTTATCGTCG | 1.05
TTTATCTATA | 1
TTTATGGACG | 0.991
TTTATGGTT | 0.966
TTTATGTGG | 0.999
TTTATTCGT | 0.979
TTTCACAGAT | 1
TTTCAGTCCG | 1.2
TTTCAGTGGC | 1
TTTCATCAGA | 0.94
TTTCCAAACT | 0.963
TTTCCACCCG | 1.6
TTTCCCCGGT | 1.1
TTTCCCGAG | 0.976
TTTCCGGAGT | 2.36
TTTCCGGCG | 2.02
TTTCCGGGAT | 1.04
TTTCCGTCAG | 1.09
TTTCCTATGC | 1.39
TTTCCTGGTT | 1.02

Sequence | switch fluorescence ratio
TTTCCTTAAA | 1.37
TTTCGAGACA | 0.981
TTTCGAGACG | 0.869
TTTCGATCTG | 0.998
TTTCGGCTGT | 1.03
TTTCGTCAGT | 1.25
TTTCGTGACA | 1.04
TTTCGTGCAT | 0.978
TTTCGTTTAA | 0.989
TTTCGTTTG | 1.02
TTTCTAATA | 1.03
TTTCTACCGG | 0.995
TTTCTACTGT | 1.05
TTTCTGATGG | 1.02
TTTCTGCCAA | 1.04
TTTCTGCCCA | 1.02
TTTCTGGGTA | 1
TTTCTGTGCA | 1.03
TTTCTTTAGG | 1.01
TTTGAACAGT | 0.97
TTTGAAGACC | 1.26
TTTGACAGCT | 0.988
TTTGACGACC | 1.15
TTTGACTCCG | 1.04
TTTGAGCATG | 0.986
TTTGAGCTCG | 1.01

Sequence | switch fluorescence ratio
TTTGAGGCAA | 3.6
TTTGAGTCCA | 1.04
TTTGAGTTTC | 1.02
TTTGATATCA | 1.03
TTTGATCATC | 1.04
TTTGATGAAG | 0.965
TTTGATGACC | 0.922
TTTGATGCGC | 0.968
TTTGATTATT | 1
TTTGATTTTA | 0.967
TTTGCAACTT | 0.991
TTTGCACGCA | 1.04
TTTGCACTGA | 0.982
TTTGCAGCCA | 0.974
TTTGCAGTGC | 1.4
TTTGCAGTTG | 0.95
TTTGCATGGA | 1.03
TTTGCATGTG | 1.03
TTTGCCACAG | 0.997

From the supplement of paper PMC10126150
